# In the supplement of paper PMC8728848:
# The list shows a part of the results.
# B1: MAL-II (Maackia amurensis), P93248 (protein)
# chain: ATSNSKPTQVLLATFLTFFFLLLNNVNSSDELSFTINNFVPNEADLLFQGEASVSSTGVLQLTRVENGQPQQYSVGRALYAAPVRIWDNTTGSVASFSTSFTFVVKAPNPTITSDGLAFFLAPPDSQIPSGRVSKYLGLFNNSNSDSSNQIVAVEFDTYFGHSYDPWDPNYRHIGIDVNGIESIKTVQWDWINGGVAFATITYLAPNKTLIASLVYPSNQTSFIVAASVDLKEILPEWVRVGFSAATGYPTQVETHDVLSWSFTSTLEANSDAATENNVHIARYTA
# Legend:
# Assay in all cases: glycan array binding signal (z-score within array); higher = stronger binding
# Details in all cases: glycan notation: IUPAC condensed, linker removed
# [1] = biological target: Neu5Ac(a2-8)Neu5Ac(a2-8)Neu5Ac(a2-3)Gal(b1-4)Glc
# Outline: (§1)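 The binding signal is a Z-score computed within each array and averaged over linkers. Arrays of the same protein sequence at different concentrations or buffers were also averaged together. Data originate from 3228 arrays in the Consortium for Functional Glycomics database, kept only where the protein sequence was available.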
# [2] = biological target: Neu5Ac(a2-8)Neu5Ac(a2-8)Neu5Ac(a2-3)[Gal(b1-3)GalNAc(b1-4)]Gal(b1-4)Glc
# Outline: as §1
# [3] = biological target: Neu5Ac(a2-8)Neu5Ac(a2-8)Neu5Ac(a2-3)[GalNAc(b1-4)]Gal(b1-4)Glc
# Outline: as §1
# [4] = biological target: Neu5Ac(a2-8)Neu5Ac(a2-8)Neu5Ac(a2-8)Neu5Ac(a2-3)[GalNAc(b1-4)]Gal(b1-4)Glc
# Outline: as §1
# [5] = biological target: Neu5Ac(a2-8)Neu5Gc(a2-3)Gal(b1-4)GlcNAc
# Outline: as §1
# Neu5Ac(b1-6)GalNAc = biological target: Neu5Ac(b1-6)GalNAc
# Outline: as §1
# [6] = biological target: Neu5Ac(b2-6)Gal(b1-4)GlcNAc
# Outline: as §1
# Neu5Ac(b2-6)GalNAc = biological target: Neu5Ac(b2-6)GalNAc
# Outline: as §1
# [7] = biological target: Neu5Ac9Ac(a2-3)Gal(b1-3)GlcNAc
# Outline: as §1
# [8] = biological target: Neu5Ac9Ac(a2-3)Gal(b1-4)GlcNAc
# Outline: as §1
# [9] = biological target: Neu5Ac9Ac(a2-6)Gal(b1-4)GlcNAc
# Outline: as §1
# [10] = biological target: Neu5Gc(a2-3)Gal(b1-3)GlcNAc
# Outline: as §1
# [11] = biological target: Neu5Gc(a2-3)Gal(b1-3)[Fuc(a1-4)]GlcNAc
# Outline: as §1
# Neu5Gc(a2-3)Gal(b1-4)Glc = biological target: Neu5Gc(a2-3)Gal(b1-4)Glc
# Outline: as §1
# [12] = biological target: Neu5Gc(a2-3)Gal(b1-4)GlcNAc
# Outline: as §1
# [13] = biological target: Neu5Gc(a2-3)Gal(b1-4)GlcNAc(b1-3)Gal(b1-4)GlcNAc(b1-2)Man(a1-3)[Neu5Gc(a2-3)Gal(b1-4)GlcNAc(b1-3)Gal(b1-4)GlcNAc(b1-2)Man(a1-6)]Man(b1-4)GlcNAc(b1-4)GlcNAc
# Outline: as §1
# [14] = biological target: Neu5Gc(a2-3)Gal(b1-4)[Fuc(a1-3)]GlcNAc
# Outline: as §1
# [15] = biological target: Neu5Gc(a2-6)Gal(b1-4)GlcNAc
# Outline: as §1
# Neu5Gc(a2-6)GalNAc = biological target: Neu5Gc(a2-6)GalNAc
# Outline: as §1
# [16] = biological target: Neu5Gc(a2-8)Neu5Ac(a2-3)Gal(b1-4)GlcNAc
# Outline: as §1
# [17] = biological target: Neu5Gc(a2-8)Neu5Gc(a2-3)Gal(b1-4)GlcNAc
# Outline: as §1
# [18] = biological target: Neu5Gc(a2-8)Neu5Gc(a2-3)Gal(b1-4)GlcNAc(b1-3)Gal(b1-4)GlcNAc
# Outline: as §1
# [19] = biological target: Neu5Gc(a2-8)Neu5Gc(a2-6)Gal(b1-4)GlcNAc
# Outline: as §1
# [20] = biological target: Neu5Gc(b2-6)Gal(b1-4)GlcNAc
# Outline: as §1
binder,measurement,setting,value
B1,glycan array binding signal (z-score),[1],-0.2
same,glycan array binding signal (z-score),[2],-0.049
same,glycan array binding signal (z-score),[3],-0.209
same,glycan array binding signal (z-score),[4],-0.171
same,glycan array binding signal (z-score),[5],-0.139
same,glycan array binding signal (z-score),Neu5Ac(b1-6)GalNAc,-0.261
same,glycan array binding signal (z-score),[6],-0.231
same,glycan array binding signal (z-score),Neu5Ac(b2-6)GalNAc,-0.193
same,glycan array binding signal (z-score),[7],-0.229
same,glycan array binding signal (z-score),[8],-0.164
same,glycan array binding signal (z-score),[9],-0.15
same,glycan array binding signal (z-score),[10],-0.186
same,glycan array binding signal (z-score),[11],-0.226
same,glycan array binding signal (z-score),Neu5Gc(a2-3)Gal(b1-4)Glc,-0.13
same,glycan array binding signal (z-score),[12],-0.167
same,glycan array binding signal (z-score),[13],-0.186
same,glycan array binding signal (z-score),[14],-0.207
same,glycan array binding signal (z-score),[15],-0.185
same,glycan array binding signal (z-score),Neu5Gc(a2-6)GalNAc,-0.202
same,glycan array binding signal (z-score),[16],-0.289
same,glycan array binding signal (z-score),[17],-0.304
same,glycan array binding signal (z-score),[18],-0.246
same,glycan array binding signal (z-score),[19],-0.198
same,glycan array binding signal (z-score),[20],-0.117
